The other results are listed elsewhere or left out. Many values rest on one well or one pass, so single values are uncertain.
Tests used:
Assay in all cases: cell count relative to DMSO control; melanoma cells; higher = more viable cells
Details in all cases: library dose: standard library concentration; 72 h
G361 = tested on: G361
IPC-298 = tested on: IPC-298
IST-MEL1 = tested on: IST-MEL1
LB2518-MEL = tested on: LB2518-MEL
LOXIMVI = tested on: LOXIMVI
MEL-HO = tested on: MEL-HO
MZ2-MEL = tested on: MZ2-MEL
MeWo = tested on: MeWo
RPMI7951 = tested on: RPMI7951
RVH-421 = tested on: RVH-421
SkMel28 = tested on: SkMel28
SkMel2 = tested on: SkMel2
SkMel30 = tested on: SkMel30
SkMel5 = tested on: SkMel5
UACC257 = tested on: UACC257
UACC62 = tested on: UACC62
WM115 = tested on: WM115
WM1716 = tested on: WM1716
WM3526 = tested on: WM3526
WM1745 = tested on: WM1745
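Note: cells treated in 1,536-well plates, then fixed and DAPI-stained, with nuclei counted from automated high-throughput microscope images.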

Structure (SMILES) | cell count (G361) | cell count (IPC-298) | cell count (IST-MEL1) | cell count (LB2518-MEL) | cell count (LOXIMVI) | cell count (MEL-HO) | cell count (MZ2-MEL) | cell count (MeWo) | cell count (RPMI7951) | cell count (RVH-421) | cell count (SkMel28) | cell count (SkMel2) | cell count (SkMel30) | cell count (SkMel5) | cell count (UACC257) | cell count (UACC62) | cell count (WM115) | cell count (WM1716) | cell count (WM3526) | cell count (WM1745)
Nc1nc(F)nc2c1ncn2[C@@H]1O[C@H](CO)[C@@H](O)[C@@H]1O [fludarabine] + O=C1NC(=O)/C(=C/c2ccc(-c3ccc(F)cc3O)o2)S1 [AS252424] (first compound 1 µM, partner dose 5 µM) | 76.9% | 75.7% | 79.1% | 87.5% | 98.7% | 83% | 91% | 71.8% | 59.7% | 105% | 1.26% | 0.707% | 20.7% | 31.2% | 28.4% | 81.8% | 96.3% | 93.2% | 21.6% | –
CC(=O)c1c(C)c2cnc(Nc3ccc(N4CCNCC4)cn3)nc2n(C2CCCC2)c1=O [palbociclib] + CCN(CC)CCCCNc1ncc2cc(-c3cc(OC)cc(OC)c3)c(NC(=O)NC(C)(C)C)nc2n1 [PD173074] (first compound 0.2 µM, partner dose 0.5 µM) | 64.7% | 70.3% | 68.7% | 52.1% | 77.7% | 76.4% | 77.8% | 46.9% | 66.5% | 74% | 39% | 55.6% | 82.8% | 62.2% | 72.4% | 64.4% | 68.6% | 43.7% | 58.2% | –
Nc1ccn([C@@H]2O[C@H](CO)[C@@H](O)C2(F)F)c(=O)n1 [gemcitabine] + O=C1NC(=O)/C(=C/c2ccc(-c3ccc(F)cc3O)o2)S1 [AS252424] (first compound 0.002 µM, partner dose 5 µM) | 39.5% | 44.9% | 41.2% | 52.2% | 81% | 55.9% | 88.4% | 36.9% | 75.3% | 59.6% | 117% | 100% | 106% | 73.9% | 98.6% | 95.6% | 69.1% | 65.2% | 98.8% | –
CC(=O)c1c(C)c2cnc(Nc3ccc(N4CCNCC4)cn3)nc2n(C2CCCC2)c1=O [palbociclib] + Oc1nc(-c2ccc(C(F)(F)F)cc2)nc2c1CSCC2 [XAV939] (first compound 0.2 µM, partner dose 10 µM) | 70.9% | 64% | 68.3% | 51.1% | 67% | 67.9% | 64.6% | 54% | 61.3% | 76.8% | 30.7% | 60.6% | 58.7% | 60.8% | 82.7% | 48.5% | 45.3% | 26.6% | 50.1% | –
Nc1ccn([C@@H]2O[C@H](CO)[C@@H](O)C2(F)F)c(=O)n1 [gemcitabine] + CC1(C)NC(=O)N(c2ccc([N+](=O)[O-])c(C(F)(F)F)c2)C1=O [nilutamide] (first compound 0.002 µM, partner dose 5 µM) | 52.1% | 55.8% | 50.6% | 72.6% | 75.7% | 58.4% | 91.6% | 49.6% | 54.5% | 92.8% | 107% | 119% | 117% | 95.1% | 89% | 99.5% | 88.9% | 73.7% | 83.1% | 51.6%
Nc1nc(F)nc2c1ncn2[C@@H]1O[C@H](CO)[C@@H](O)[C@@H]1O [fludarabine] + CCN(CC)CCCCNc1ncc2cc(-c3cc(OC)cc(OC)c3)c(NC(=O)NC(C)(C)C)nc2n1 [PD173074] (first compound 1 µM, partner dose 0.5 µM) | 76.2% | 69.8% | 71.2% | 93.1% | 89.8% | 73.3% | 98.4% | 72.1% | 59.1% | 79.9% | 2.29% | 1.08% | 18.1% | 17.1% | 29.4% | 97.5% | 91.2% | 90.8% | 19% | –
CO[C@H]1C[C@@H]2CC[C@@H](C)[C@@](O)(O2)C(=O)C(=O)N2CCCC[C@H]2C(=O)O[C@H]([C@H](C)C[C@@H]2CC[C@@H](OCCO)[C@H](OC)C2)CC(=O)[C@H](C)/C=C(\C)[C@@H](O)[C@@H](OC)C(=O)[C@H](C)C[C@H](C)/C=C/C=C/C=C/1C [everolimus] + Cn1cncc1[C@@](N)(c1ccc(Cl)cc1)c1ccc2c(c1)c(-c1cccc(Cl)c1)cc(=O)n2C [tipifarnib] (first compound 0.1 µM, partner dose 0.05 µM) | 44.6% | 82.5% | 75.2% | 62.1% | 69.5% | 72.3% | 73.4% | 59.1% | 88.5% | 87.6% | 45.1% | 49.9% | 67.2% | 47.6% | 95.5% | 77.8% | 55.1% | 64.9% | 68.1% | 63.4%
CO[C@H]1C[C@@H]2CC[C@@H](C)[C@@](O)(O2)C(=O)C(=O)N2CCCC[C@H]2C(=O)O[C@H]([C@H](C)C[C@@H]2CC[C@@H](OCCO)[C@H](OC)C2)CC(=O)[C@H](C)/C=C(\C)[C@@H](O)[C@@H](OC)C(=O)[C@H](C)C[C@H](C)/C=C/C=C/C=C/1C [everolimus] + CNC(=O)c1cc(Oc2ccc(NC(=O)Nc3ccc(Cl)c(C(F)(F)F)c3)cc2)ccn1 [sorafenib] (first compound 0.1 µM, partner dose 2 µM) | 78% | 74.9% | 81.5% | 71.7% | 116% | 82.8% | 99.7% | 68.5% | 107% | 102% | 70.3% | 75.8% | 67.3% | 67.9% | 101% | 68% | 66.9% | 85.3% | 91.5% | 87%
Nc1ncn([C@H]2C[C@H](O)[C@@H](CO)O2)c(=O)n1 [decitabine] + COc1cc(N2CCC(N3CCN(C)CC3)CC2)ccc1Nc1ncc(Cl)c(Nc2ccccc2S(=O)(=O)C(C)C)n1 [NVP-TAE684] (first compound 0.5 µM, partner dose 0.4 µM) | 78.6% | 69.7% | 79.2% | 78.4% | 95.5% | 74.5% | 81.6% | 68.3% | 61.1% | 93.8% | 87.6% | 54.6% | 99.6% | 46.8% | 89.5% | 74.7% | 54.8% | 76.1% | 67.5% | –
CC(=O)O[C@@]12CO[C@@H]1C[C@H](O)[C@@]1(C)C(=O)[C@H](O)C3=C(C)[C@@H](OC(=O)[C@H](O)[C@@H](NC(=O)OC(C)(C)C)c4ccccc4)C[C@@](O)([C@@H](OC(=O)c4ccccc4)[C@H]21)C3(C)C [Docetaxel] + O=S(=O)(c1ccccc1)N(CC(F)(F)F)c1ccc(C(O)(C(F)(F)F)C(F)(F)F)cc1 [T0901317] (first compound 0.0005 µM, partner dose 7 µM) | 17.1% | 24.1% | 61.8% | 33.8% | 63.6% | 47.3% | 40.1% | 21.1% | 19.1% | 71.1% | 18.4% | 15.3% | 53.2% | 41.7% | 62.4% | 60.2% | 36.8% | 37.2% | 29.6% | –
CC(=O)c1c(C)c2cnc(Nc3ccc(N4CCNCC4)cn3)nc2n(C2CCCC2)c1=O [palbociclib] + CCc1ccc(CCOc2ccc(CC3SC(=O)NC3=O)cc2)nc1 [pioglitazone] (first compound 0.2 µM, partner dose 10 µM) | 79.5% | 99.7% | 82.7% | 88.3% | 97.9% | 82.9% | 89.8% | 68.6% | 52.3% | 84.9% | 56.7% | 75.4% | 90.5% | 60% | 89.2% | 79.8% | 61.6% | 41.8% | 57.4% | –
CO[C@H]1C[C@@H]2CC[C@@H](C)[C@@](O)(O2)C(=O)C(=O)N2CCCC[C@H]2C(=O)O[C@H]([C@H](C)C[C@@H]2CC[C@@H](OCCO)[C@H](OC)C2)CC(=O)[C@H](C)/C=C(\C)[C@@H](O)[C@@H](OC)C(=O)[C@H](C)C[C@H](C)/C=C/C=C/C=C/1C [everolimus] + Oc1cc(-c2nc(-c3ccccc3)[nH]c2-c2ccncc2)ccc1Cl [L779450] (first compound 0.1 µM, partner dose 1 µM) | 37.7% | 72.7% | 77.7% | 69.3% | 100% | 63.9% | 75.1% | 61.7% | 66.7% | 63.8% | 38.8% | 19.8% | 77% | 53.6% | 80.9% | 50.8% | 39.3% | 56.4% | 45.1% | –
CO[C@H]1C[C@@H]2CC[C@@H](C)[C@@](O)(O2)C(=O)C(=O)N2CCCC[C@H]2C(=O)O[C@H]([C@H](C)C[C@@H]2CC[C@@H](OCCO)[C@H](OC)C2)CC(=O)[C@H](C)/C=C(\C)[C@@H](O)[C@@H](OC)C(=O)[C@H](C)C[C@H](C)/C=C/C=C/C=C/1C [everolimus] + COc1cc2ncnc(Nc3ccc(Oc4ccccc4)cc3)c2cc1OC [SrcI1] (first compound 0.1 µM, partner dose 10 µM) | 36.7% | 56.2% | 82% | 86% | 79.8% | 64.2% | 74.1% | 51.4% | 42.6% | 105% | 47% | 80.5% | 59.8% | 62.2% | 86.3% | 53.3% | 69.1% | 59.8% | 58% | –
Nc1nc(F)nc2c1ncn2[C@@H]1O[C@H](CO)[C@@H](O)[C@@H]1O [fludarabine] + CC(C)CCN1c2nc(Nc3cc(F)c(O)c(F)c3)ncc2N(C)C(=O)C1C [BID1870] (first compound 1 µM, partner dose 1 µM) | 87% | 72.7% | 77.2% | 90.1% | 75.7% | 75.8% | 116% | 74.3% | 99.9% | 95.5% | 1.58% | 1.45% | 25.7% | 44.1% | 30.3% | 43.8% | 77.8% | 68.1% | 27.6% | –
CC(=O)c1c(C)c2cnc(Nc3ccc(N4CCNCC4)cn3)nc2n(C2CCCC2)c1=O [palbociclib] + COC(=O)c1sccc1S(=O)(=O)Nc1ccc(Nc2ccccc2)cc1OC [GSK0660] (first compound 0.2 µM, partner dose 5 µM) | 77% | 66.2% | 71.5% | 60.9% | 90.8% | 74% | 56.2% | 56.2% | 67% | 63.9% | 45.5% | 53.9% | 55.7% | 46.7% | 80.5% | 56.3% | 54.6% | 41% | 44.4% | –
CC(=O)O[C@@]12CO[C@@H]1C[C@H](O)[C@@]1(C)C(=O)[C@H](O)C3=C(C)[C@@H](OC(=O)[C@H](O)[C@@H](NC(=O)OC(C)(C)C)c4ccccc4)C[C@@](O)([C@@H](OC(=O)c4ccccc4)[C@H]21)C3(C)C [Docetaxel] + CC(C)CCN1c2nc(Nc3cc(F)c(O)c(F)c3)ncc2N(C)C(=O)C1C [BID1870] (first compound 0.0005 µM, partner dose 1 µM) | 10.9% | 38.2% | 29% | 45% | 67.6% | 37.2% | 39.7% | 17.6% | 23.1% | 50.3% | 10.3% | 10.5% | 42.3% | 30.1% | 57.1% | 45.8% | 33.8% | 33.5% | 28.2% | –

— the supplement of paper PMC4604168 (melanoma cell lines)
